Source: ChEMBL document CHEMBL4888484, “Replenishing the malaria drug discovery pipeline: Screening and hit evaluation of the MMV Hit Generation Library 1 (HGL1) against asexual blood stage Plasmodium falciparum ,using a nano luciferase reporter read-out” (2022)
Among all 150,000 compounds or so, about 540 (0.36%) showed an effect of 50% or more. This is one part of the list.

test system: Plasmodium falciparum; experiment: Primary screen in NF54 nanoGlo assay, in single point, at 2uM, 72h; a lower Z score goes with more inhibition; type: functional, Erythrocyte; conditions: timepoint 72 hour

| SMILES | % Inhibition [%] | Z score |
| --- | --- | --- |
| O=C(COc1ccccc1N1C(=O)c2ccccc2C1=O)c1ccc(Cl)cc1 | 2 | -0.28 |
| Cc1nc2c(c(N3CCCC3)n1)CCN(C(=O)CNC(N)=O)C2 | 2 | -0.4 |
| CCc1onc(C)c1NC(=O)Nc1ccc(C(C)=O)c(Cl)c1 | -1 | 0.13 |
| Cc1ccc2nc(CN(Cc3nccn3C)C3CC3)[nH]c2c1 | -10 | 1.05 |
| Cn1cc(C2CCCN2CC(O)COCC2CCCO2)cn1 (stereo unspecified) | 0 | 0.03 |
| COc1ccccc1NC(=O)Cc1nnc(-c2sccc2C)o1 | -5 | 0.47 |
| C[C@H]1C(=O)N2C[C@@H](N(C)C)C[C@H]2CN1C(=O)COCc1ccccc1 | 6 | -0.73 |
| Fc1ccccc1CN1CC(c2nc(-c3ccco3)no2)C1 | 21 | -2.43 |
| CN(CCc1cccc(Br)c1)C1CC[S+]([O-])CC1 (stereo unspecified) | -8 | 1.19 |
| N#CC1(NC(=O)c2ccnnc2)CCCCC1 | -2 | 0.17 |
| COc1ccc(NC(=O)c2c(OC)cc(=O)n3c2CCCC3)c(C)c1 | -17 | 2.69 |
| Cc1cc(C(=O)N2CCC[C@](C)(c3noc(-c4ccncc4)n3)C2)c(C)o1 | -4 | 0.56 |
| Cc1oc(NC(=O)[C@H]2CCCO2)nc1C1CC1 | -4 | 0.72 |
| CC(C)NS(=O)(=O)[C@H]1CCN(Cc2ccnc(N)c2)C1 | -15 | 2.07 |
| Cc1cc(C)cc(CN2CCN(C(=O)[C@@H]3CC[C@H](C(=O)O)C3)CC2=O)c1 | 9 | -1.21 |
| COC1CCC(CCNCc2ccccc2)CC1 (stereo unspecified) | -15 | 2.25 |
| Cc1c(CC(=O)N[C@H]2CCCCNC2=O)c2c(n1Cc1ccccc1)CCCC2=O | -15 | 1.91 |
| CC(C)CC(=O)N1C[C@H](c2nc(-c3cccnc3)no2)[C@@H](C)C1 | 3 | -0.33 |
| COc1ccsc1S(=O)(=O)N1CC2CCCC2C1 (stereo unspecified) | 2 | -0.29 |
| CC(C)n1ccc(Cn2nc(C(F)(F)F)ccc2=O)n1 | -5 | 0.61 |
| CCO[C@H]1CCN(C(=O)c2cnc(Oc3ccccc3)cn2)C1 | -2 | 0.24 |

| SMILES | % Inhibition [%] | Z score |
| --- | --- | --- |
| N#Cc1ccc(S(=O)(=O)N2CCN(C(=O)[C@H]3CC(=O)N(Cc4ccccc4Cl)C3)CC2)cc1 | -5 | 0.67 |
| Cc1nnc(-c2cc(C3CC3)n(-c3cccc(C(=O)NCCCc4ccccc4)c3)n2)o1 | 5 | -0.92 |
| COc1cccc(C(=O)N2CCC(N3C[C@H](O)C[C@H]3C(=O)Nc3ccc(N4CCOCC4)cc3)CC2)c1 | -10 | 1.32 |
| Cc1nc(-c2cc(S(=O)(=O)NC3CC3)cn2C)sc1C(=O)N1CCOCC1 | -17 | 2.07 |
| Cc1cc(NC(=O)c2cc(C(C)C)[nH]n2)ccc1N1C(=O)CCC1=O | -12 | 1.84 |
| O=C(C1CCCC1)N1CC[C@@]2(O)CCN(CCOc3ccccc3)C[C@H]2C1 | -6 | 1.17 |
| CNc1ncc(C(=O)N2CC[C@@]3(CCCN(CC4CCCCC4)C3=O)C2)cn1 | -14 | 2.25 |
| CCn1ccnc1[C@H](C)NC(=O)c1ccc2c(C)cc(=O)[nH]c2c1 | -11 | 1.49 |
| CNc1ccc(Cl)cc1C(=O)N1CCC2(CCO2)CC1 | -26 | 2.3 |
| COC(=O)c1ccc(CN[C@@H]2CCCC[C@H]2O)n1C | 2 | -0.37 |
| CC(=O)N1CCCN(C(=O)NC2CCCCCCC2)CC1 | -7 | 0.93 |
| Cc1ccc2nc(-c3ccco3)nc(N3CCN(C(=O)Cc4ccc(F)cc4)CC3)c2c1 | -9 | 1.19 |
| COc1cc([C@H]2NC(=O)c3ccccc3N2C)cc2c1OCCO2 | -5 | 0.73 |
| COc1cccc(Cn2ccc3ccn(Cc4cccnc4)c3c2=O)c1 | 9 | -0.82 |
| O=C(c1cc(Cl)c[nH]1)N1CCCO[C@@H](CN2CCOCC2)C1 | -1 | 0.12 |
| COc1ccc(S(=O)(=O)[C@H]2CS(=O)(=O)C[C@@H]2NCCN2CCOCC2)cc1C | -2 | 0.26 |
| C[C@H](O)c1ccn(Cc2nc(C(F)(F)F)cs2)n1 | -9 | 1.05 |
| COc1ccnc(Cn2ccc(-c3cccc(-c4ncccc4C#N)c3)n2)c1 | 1 | -0.24 |
| CCCc1nc(N2CCC[C@H](c3nc(C(C)C)no3)C2)no1 | -16 | 2.08 |
| O=C(CCc1cccc2ccccc12)NCc1cncc(-c2ccsc2)c1 | -2 | 0.36 |
| Cc1ccccc1C(=O)N(Cc1ccc(F)cc1)c1cccc(CC(=O)NCCN2CCCC2)c1 | 6 | -0.6 |

| SMILES | % Inhibition [%] | Z score |
| --- | --- | --- |
| O=C(Nc1ncn(CC(=O)N2CCOCC2)n1)c1ccc(F)cc1 | 6 | -0.61 |
| C=CCCC(=O)N1CCC[C@H](C(=O)c2cccc3ccccc23)C1 | -1 | 0.2 |
| Cc1ccc(-c2nnc([C@H](C)Nc3cccc4c3OCCO4)o2)cc1 | -9 | 1.18 |
| CC(C)=CCN(CC(N)=O)[C@H](C)c1ccccc1 | -2 | 0.32 |
| c1ccc(-c2cc(-c3nc(-c4ccc5c(c4)OCO5)no3)n[nH]2)cc1 | -10 | 1.06 |
| CCC(CC)C(=O)N1CC[C@@H](CC(=O)O)[C@@H](CC2=NCCc3cc(F)ccc32)C1 | -3 | 0.39 |
| c1nc(Cn2nnnc2C2CCCCC2)cs1 | 5 | -0.98 |
| CC1CN(Cc2ccccn2)CCC1Nc1ccc(CCO)cc1 (stereo unspecified) | -2 | 0.32 |
| O=C(NCCOc1c(Cl)cc(Cl)cc1Cl)[C@H]1CCS(=O)(=O)C1 | -15 | 1.49 |
| O=C(CCc1ccc(O)cc1)N1CCC[C@H]1CO | 0 | -0.04 |
| O=C(Nc1nncs1)c1ccc(N[C@@H]2CCC[C@H]2c2ccccc2)nc1 | 29 | -3.93 |
| COCC(=O)N1CCC2(CC1)C(=O)N(CC(=O)N1CCCCC1)CN2c1ccccc1 | -6 | 0.94 |
| Cc1ccc(-c2nc(-c3ccc(C(F)(F)F)cc3)sc2NC(=O)c2ccccc2)cc1 | -8 | 1.09 |
| COc1ccc(CNC(=O)CN2C(c3ccccc3)=C[C@@H](c3ccc(C)cc3)n3nnnc32)cc1 | -5 | 0.52 |
| O=C(CCc1ccncc1)N[C@H]1CCCC12OCCO2 | 0 | -0.06 |
| O=C(c1ccc[nH]1)N1CCCN(C(=O)C2CC3CCC2O3)CC1 (stereo unspecified) | -12 | 2.16 |
| CO[C@@]1(C)CCCN(C(=O)NCCc2ccc3[nH]ccc3c2)C1 | -11 | 1.84 |
| C[C@H]1COCCCN1Cc1cncc(C(F)(F)F)c1 | -9 | 0.9 |
| Cc1cccc(NC(=O)Cn2c(=O)n(Cc3ccc4c(c3)OCO4)c(=O)c3sccc32)c1C | 13 | -2.55 |
| CC(=O)Nc1ccc(C(=O)N2CC[C@H](c3cccnc3)C2)cc1Cl | 0 | -0.04 |
| Cc1ccc(CN(C)C)cc1NC(=O)[C@@H](C(=O)O)C(C)(C)C | 30 | -3.43 |

| SMILES | % Inhibition [%] | Z score |
| --- | --- | --- |
| COc1ccc(S(=O)(=O)Oc2ccc3c(c2)ncn3C)cc1 | -22 | 3.28 |
| CNc1nc(N2CCC(CO)(C[C@H]3CCCCO3)CC2)nc2c1CCC2 | -18 | 1.89 |
| Cc1nnc(CC(=O)N2CCCC23CCC3)o1 | -14 | 1.38 |
| Cc1noc(C)c1CO[C@H]1COCC[C@@H]1NC(=O)c1ncoc1C | -6 | 0.88 |
| COc1ccc(CN2CCC[C@H](Cn3ccnc3C)C2)cn1 | -11 | 1.66 |
| O=C(NCCCc1ccccc1)N1CC(CN2C(=O)CCC2=O)C1 | -9 | 1.7 |
| Cc1nc[nH]c1CN1CCN(c2ncccn2)CC1 | -16 | 2.23 |
| NC(=O)[C@@H]1CCCCN1Cc1cnc2c(-c3ccccc3)cnn2c1 | -14 | 2.03 |
| CCCn1nccc1S(=O)(=O)NCc1csc(C)n1 | -9 | 1.74 |
| O=C1C2ON(c3ccc(Br)cc3)C(c3cccnc3)C2C(=O)N1c1cccc(C(F)(F)F)c1 (stereo unspecified) | -3 | 0.62 |
| CN(CC(=O)NCCCc1ccccc1)c1nnc(N2CCCC2=O)s1 | -2 | 0.4 |
| O=C(Nc1ccc(-c2nc3cc(Cl)ccc3o2)cc1)c1cccc2ccccc12 | -3 | 0.61 |
| CN(C)[C@@H](CN=C(N)N1CCOCC1)c1cccc(C(F)(F)F)c1 | -14 | 1.43 |
| CCc1cccc(NC(=O)[C@@H]2CCCCN2S(=O)(=O)c2cccc3c2N=S=N3)c1 | -6 | 0.62 |
| CN(C[C@@H](O)Cc1ccccc1)c1cccc(C(=O)O)n1 | 2 | -0.33 |
| Cc1[nH]c(-c2ccccc2)nc1C(=O)N1CCC[C@H](c2nc(CC(C)C)no2)C1 | -5 | 1.15 |
| COc1cccc(NC(=O)c2c(NC(=O)c3ccc(C)cc3)sc(C)c2C)c1 | -15 | 1.94 |
| CC(C)(C)n1ncc2c(=O)[nH]c(NC3CCN(Cc4ccccc4)CC3)nc21 | 8 | -1.02 |
| Cc1ccsc1CN1CC[C@@]2(C1)C(=O)N(CC(N)=O)c1ccccc12 | -13 | 2.44 |
| Cc1ccc([C@H](C)c2nc(C3CC3)no2)o1 | -3 | 0.3 |
